Measurements published in PubChem BioAssay AID1347428 (National Center for Advancing Translational Sciences (NCATS), 2020).
Out of some 91,000 compounds screened, about 290 (0.32%) were called active. Inconclusive results, whose numbers are uncertain, are shown with a selection of clear calls. Calls come from the whole dose curve; as a rule, active = well fitted inhibition curve with a large enough effect; inconclusive = small, poorly fitted or top-dose-only effect; inactive = no such curve, though single readings can be large or run the other way. A potency beside an inconclusive call is a rough fit, not a confirmed value.
% is set by controls: 0 for no effect and ±100 for the full control effect; potency is the fitted concentration of half-maximal effect; tags give direction and shape of the fitted curve.
Note: nearly all actives have a fitted effect of over 25% in size.

These compounds were tested against Single-stranded DNA cytosine deaminase (Homo sapiens) (UniProt Q9GZX7) (assay: Primary qHTS assay for inhibitors of Activation Induced Cytidine Deaminase (AID): AID signal). Details: AID deamination FRET fluorescence, UDG-coupled, 4 h; activity change, negative = inhibition: at 115 µM (top of the series).
Sequence of UniProt Q9GZX7 (Q9GZX7 whole entry, looked up): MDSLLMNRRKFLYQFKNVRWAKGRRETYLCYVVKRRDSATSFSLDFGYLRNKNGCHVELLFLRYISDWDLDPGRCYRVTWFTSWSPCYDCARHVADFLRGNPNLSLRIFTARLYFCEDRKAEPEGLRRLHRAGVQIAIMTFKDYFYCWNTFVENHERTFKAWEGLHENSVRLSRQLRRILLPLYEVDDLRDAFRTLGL
In the case of `CCc1ccc(NC(=O)CSC2=Nc3ccccc3C3=NC(CC(=O)NCc4ccc5c(c4)OCO5)C(=O)N23)cc1` (centres undefined), the Potency is reported as inconclusive: 31.6 µM [inhibitor, full curve, poor fit]. For `CCOC(=O)c1[nH]c2c(c1Cc1ccccc1)C(=O)CC(c1ccc(OC)cc1)C2` (centres undefined), the Potency was inconclusive: 22.4 µM [inhibitor, full curve, poor fit]. With `Cc1ccc(NS(=O)(=O)c2cc([N+](=O)[O-])ccc2N/N=C/c2ccc(C#N)cc2)c(C)c1` the “activity change, negative = inhibition” value was inactive: -16.9%. For `CC1(C)CC(=O)C2=C(C1)OC(N)=C(C#N)C2c1ccncc1` (centres undefined), the “activity change, negative = inhibition” value was inactive: -0.219%. `CN1CCC(N(C)C(=O)c2nn(-c3ccccc3)c(=O)c3ccccc23)CC1` was tested, and the “activity change, negative = inhibition” value was inactive: 2.78%. In the case of `CCOc1cccc(CNc2ccc(O)cc2)c1OCc1ccccc1Cl`, the Potency is reported as inconclusive: 22.4 µM [inhibitor, full curve, poor fit]. For `COCCCNC(=O)CSc1nc2ccccc2c(=O)n1Cc1ccco1`, the “activity change, negative = inhibition” value was inactive: -8.69%. With `CC(C)CSc1nc(N2CCOCC2)c2c(c1C#N)CCCC2` the Potency was inconclusive: 28.2 µM [inhibitor, partial curve, poor fit]. In the case of `Cc1cc(C)cc(NC(=O)CN(C)S(=O)(=O)c2ccc3[nH]c4c(c3c2)CCCC4)c1`, the “activity change, negative = inhibition” value is reported as inactive: 2.87%. With `CCCCc1cc(=O)oc2cc(OCC(=O)Nc3ccc(C(N)=O)cc3)ccc12` the “activity change, negative = inhibition” value was inactive: 4.31%. `O=C(NCCc1csc(-c2cccc(F)c2)n1)c1ccc(Br)o1` was tested, and the Potency was inconclusive: 79.4 µM [inhibitor, single point]. For `Cc1ccc(Cl)cc1NCc1nnc2n1CCCCC2`, the Potency was inconclusive: 100 µM [inhibitor, single point]. In the case of `COc1cc(C(=O)Nc2ccc(C(=O)O)cc2)c2ccccc2n1`, the “activity change, negative = inhibition” value is reported as inactive: -14.4%. For `Cc1ccccc1OCc1ccc(-c2nc(C#N)c(N3CCN(C)CC3)o2)o1`, the Potency was inconclusive: 39.8 µM [inhibitor, partial curve]. `CCC(C(=O)N1CCN(c2ccccc2F)CC1)n1nc(C)c2sc3ccccc3c2c1=O` (centres undefined) was tested, and the Potency was inconclusive: 11.2 µM [inhibitor, full curve]. In the case of `CC1CN(C(=O)N2CCC(C(=O)NCCC3=CCCCC3)CC2)c2cc(Cl)ccc2O1` (centres undefined), the Potency is reported as inconclusive: 39.8 µM [inhibitor, partial curve, poor fit]. `CCc1ccc(NC(=O)CSc2nccn2-c2cccc(C)c2C)cc1` was tested, and the Potency was inconclusive: 12.6 µM [inhibitor, partial curve, poor fit]. For `CCOc1ccccc1NC(=O)C(C)Sc1nc(-c2ccccc2)c(C#N)c(=O)[nH]1` (centres undefined), the Potency was active: 35.5 µM. With `Cc1cccc(NC(=O)c2sc3nc4c(cc3c2N)CN(Cc2ccccc2)CC4)c1` the “activity change, negative = inhibition” value was inactive: 157%.
